From publication PMC5892938 come the findings set out here.

The list shows a part of the results. At the low end of the ranking, values are background and their order means little.

In the assay the target is GST-SBP-SLBP (stem-loop binding protein) (UniProt Q14493). Kind of assay: targeted RNA Bind-n-Seq.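 Also: DESeq read counts versus GST-SBP nonspecific binding control pulldown.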 To be noted: RBNS binding buffer: 25 mM Tris pH 7.5, 150 mM KCl, 3 mM MgCl2, 0.1% Tween, 0.5 mg/mL BSA, 1 mM DTT; 27 nM protein, 750 pM RNA pool; temperature not stated; high values mean tight binding.
Consider “GGUCACGUCUCAAUCAACUCUUUCCCCAGGGAAAACCCUGGUAUACUCAACAGCUCGCAGUCAAG”, for which the binding signal (log2 fold change) was found to be 0.104.
“GGUCACGUCUCAAUCAACUCUUCUUCCAGGGAAAUCCCUGGUAUUCUCAACAGCUCGCAGUCAAG”: the binding signal (log2 fold change) came out at 0.131.
For “GGUCACGUCUCAAUCAACUCUUCCCCCAGGGAAACCCCUGGUUUAUUCAACAGCUCGCAGUCAAG” the value was -0.145; for “GGUCACGUCUCAAUCAACUCAUUUCCAGGAGUUUCCUCCUGCAUAUUCAACAGCUCGCAGUCAAG”, -0.172; for “GGUCACGUCUCAAUCAACUCUAUUUCAGGAGUUUUCUCCUGUAUUCUCAACAGCUCGCAGUCAAG”, -0.0653.
For “GGUCACGUCUCAAUCAACUCUAUCCCAGGAGUUUCCUCCUGCUAACUCAACAGCUCGCAGUCAAG” the value was 0.0883; for “GGUCACGUCUCAAUCAACUCUUCUUCCAGGGAAAUCCCUGGUUAACUCAACAGCUCGCAGUCAAG”, 0.0795.
Then “GGUCACGUCUCAAUCAACUCAAUUCCCAGGGAAAACCCUGGCUAACUCAACAGCUCGCAGUCAAG”, with 0.285; and “GGUCACGUCUCAAUCAACUCUUUCCCCAGGGAAAACCCUGGUAAUGUCAACAGCUCGCAGUCAAG”, with -0.0128.
Take “GGUCACGUCUCAAUCAACUCUUCUUCAGGAGUUUUCUCCUGCAUUUUCAACAGCUCGCAGUCAAG”: the binding signal (log2 fold change) is -0.0852.
For “GGUCACGUCUCAAUCAACUCUUCGUCAGGAGUUUUCUCCUGCAUUCUCAACAGCUCGCAGUCAAG” the value was -0.000341; for “GGUCACGUCUCAAUCAACUCUUCUUCAGGAGUUUCCUCCUGUUAAUUCAACAGCUCGCAGUCAAG”, -0.078; for “GGUCACGUCUCAAUCAACUCAAUCUCCAGGGAAAUCCCUGGUUUUCUCAACAGCUCGCAGUCAAG”, -0.0158.
Turning to “GGUCACGUCUCAAUCAACUCCAUAGAGGGGGGGAAAACCCCUUUGCCCUCAACAUCAACAGCUCGCAGUCAAG”, the binding signal (log2 fold change) is -0.501.
Then “GGUCACGUCUCAAUCAACUCUAUUCCCAGGGAAAACCCUGGUUUAUUCAACAGCUCGCAGUCAAG”, with -0.146; and “GGUCACGUCUCAAUCAACUCUAUAGAGGGGGGGAAAACCCCUUUACCCUCACAAUCAACAGCUCGCAGUCAAG”, with -0.4; and “GGUCACGUCUCAAUCAACUCAAUCCCAGGAGUUUUCUCCUGCUUUUUCAACAGCUCGCAGUCAAG”, with -0.15.
For “GGUCACGUCUCAAUCAACUCUUCGCCAGGAGUUUCCUCCUGUAUUCUCAACAGCUCGCAGUCAAG” the value was 0.108; for “GGUCACGUCUCAAUCAACUCCCUAGAGGGGGGGAAAACCCCUUUGCCCUCACAUUCAACAGCUCGCAGUCAAG”, -0.0224.
Then “GGUCACGUCUCAAUCAACUCAUCCCCCAGGGAAAACCCUGGCUAUCUCAACAGCUCGCAGUCAAG”, with -0.0217; and “GGUCACGUCUCAAUCAACUCAUUCUCAGGAGUUUGCUCCUGCAAUUUCAACAGCUCGCAGUCAAG”, with 0.178; and “GGUCACGUCUCAAUCAACUCAUAAGAGGGGGGGAAAACCCCUUUACCCUCCACAUCAACAGCUCGCAGUCAAG”, with -0.538.
In the case of “GGUCACGUCUCAAUCAACUCAUUUCCCAGGGAAAACCCUGGUAAUUUCAACAGCUCGCAGUCAAG”, the binding signal (log2 fold change) was -0.0238.
For “GGUCACGUCUCAAUCAACUCUUUCUCCAGGGAAAGCCCUGGCAAACUCAACAGCUCGCAGUCAAG” the value was -0.18.
For “GGUCACGUCUCAAUCAACUCUUCCCCCAGGGAAAUCCCUGGUUUUUUCAACAGCUCGCAGUCAAG” the value was -0.17.
Then “GGUCACGUCUCAAUCAACUCAUUCCCAGGAGUUUCCUCCUGCUAUCUCAACAGCUCGCAGUCAAG”, with 0.0283; and “GGUCACGUCUCAAUCAACUCUACUUCAGGAGUUUCCUCCUGUAAACUCAACAGCUCGCAGUCAAG”, with -0.021; and “GGUCACGUCUCAAUCAACUCAUUCCCAGGAGUUUCCUCCUGUAAUUUCAACAGCUCGCAGUCAAG”, with 0.192.
On to “GGUCACGUCUCAAUCAACUCAUUUCCAGGAGUUUCCUCCUGUAUACUCAACAGCUCGCAGUCAAG”, for which the binding signal (log2 fold change) was -0.0904.
On to “GGUCACGUCUCAAUCAACUCAUUCGCAGGAGUUUCCUCCUGGUUUCUCAACAGCUCGCAGUCAAG”, for which the binding signal (log2 fold change) was 0.089.
For “GGUCACGUCUCAAUCAACUCAUUUCCCAGGGAAACCCCUGGUAUACUCAACAGCUCGCAGUCAAG” the value was 0.0642.
For “GGUCACGUCUCAAUCAACUCCUACGAGGGGGGGAAAACCCCUUUACCCUCACUCUCAACAGCUCGCAGUCAAG” the value was -0.23; for “GGUCACGUCUCAAUCAACUCUUCUUCCAGGGAAACCCCUGGUAUAUUCAACAGCUCGCAGUCAAG”, 0.0858.
As to “GGUCACGUCUCAAUCAACUCAUCCUCCAGGGAAAUCCCUGGUUUACUCAACAGCUCGCAGUCAAG”, the binding signal (log2 fold change) is 0.173.
In the case of “GGUCACGUCUCAAUCAACUCAAUCCCAGGAGUUUCCUCCUGCUAACUCAACAGCUCGCAGUCAAG”, the binding signal (log2 fold change) is 0.303.
Then “GGUCACGUCUCAAUCAACUCUUCCUCAGGAGUUUUCUCCUGCAAUCUCAACAGCUCGCAGUCAAG”, with -0.0543; and “GGUCACGUCUCAAUCAACUCUAUGUCCAGGGAAAACCCUGGUUUUUUCAACAGCUCGCAGUCAAG”, with -0.00335.
